# According to PMC7819943, “Rice protein-binding microarrays: a tool to detect cis-acting elements near promoter regions in rice”:
# Some of the results follow.
# Target: T1, OsWOX13 (Oryza sativa, UniProt Q5QMM3 1-267)
# T1 sequence: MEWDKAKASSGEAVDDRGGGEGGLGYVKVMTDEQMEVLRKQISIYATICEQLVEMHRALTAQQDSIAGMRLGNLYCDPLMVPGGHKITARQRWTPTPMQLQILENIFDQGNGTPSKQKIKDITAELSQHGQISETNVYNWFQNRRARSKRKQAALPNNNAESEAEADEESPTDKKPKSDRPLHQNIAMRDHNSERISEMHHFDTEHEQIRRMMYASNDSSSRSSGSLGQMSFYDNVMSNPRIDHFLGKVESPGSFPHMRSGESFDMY
# Assay: protein-binding microarray (RPBM); PBS, 2% BSA, 51.3 ng/ul salmon testes DNA, 50 uM zinc acetate, 200 nM TF, 25 C, 1 h; high values mean tight binding
# Details: protein: recombinant; tags: N-terminal polyhistidine and DsRed monomer fusion (pET32a); label: CyDye5-dUTP incorporated in the synthesized complementary strand; 3' TTTTT single-stranded linker to array surface; dsDNA, one strand shown
# How it was run: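 Transcription factors were each fused at the N-terminus to a polyhistidine tag plus DsRed and expressed in E. coli BL21-CodonPlus before Ni–NTA purification. Binding to a double-stranded custom Agilent array was carried out with 200 nM protein at 25 °C for 1 h in PBS, 2% BSA, salmon testes DNA and 50 µM zinc acetate. The binding signal is per-feature fluorescence intensity, in arbitrary units, on an Axon 4000B scanner.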
row,Sequence,binding signal
1,ATCGAATTAACATGTAAACGTCATGTCAATACTACATAGGCGGAGTCACCTAGTGCAG,6900 fluorescence intensity (a.u.)
2,CAAAATTTGACAATACGAAAGTTCAACATTCCTAATACTACGGAGTCACCTAGTGCAG,4730 fluorescence intensity (a.u.)
3,GCAAATATGTAGAATTAATTATTCTTGATCTGTAGATGAACGGAGTCACCTAGTGCAG,6730 fluorescence intensity (a.u.)
4,AAATGAGTGACTCAATAATCTAGAAAATTTGTATCATGAGCGGAGTCACCTAGTGCAG,3860 fluorescence intensity (a.u.)
5,ATTTTATTGTTGCGGTTGCCAATCAACAACGACGTCATTTCGGAGTCACCTAGTGCAG,3880 fluorescence intensity (a.u.)
6,ATTGATGTGAGTTCAATCATGTTCCTGATCCATGGGGTTTCGGAGTCACCTAGTGCAG,24900 fluorescence intensity (a.u.)
7,TGCTGGATTGTATTGATGTGTGTGCTTACCTAGTATAAATCGGAGTCACCTAGTGCAG,3580 fluorescence intensity (a.u.)
8,TTTATCATGATTTCTTATATAGTTACCAAAATTTAGCAGCCGGAGTCACCTAGTGCAG,5990 fluorescence intensity (a.u.)
9,ACTCCTGATTACCGGACCAGTAATTCAGTACGGATTCTACCGGAGTCACCTAGTGCAG,12800 fluorescence intensity (a.u.)
10,CCCTAACTGGGACAAAATGATTATTTTAGTCTAACATACACGGAGTCACCTAGTGCAG,21300 fluorescence intensity (a.u.)
11,GAATGTGATTTAATCAAGAGCAAGGGATGAGGGAGGCCAGCGGAGTCACCTAGTGCAG,19300 fluorescence intensity (a.u.)
12,AATAAAATAATTTGACGAGAAGCGTACGTACATTGCAAAGCGGAGTCACCTAGTGCAG,11700 fluorescence intensity (a.u.)
13,GTTATTCCAACACCATCGGGCATCACTTGCCCGCAAAATTCGGAGTCACCTAGTGCAG,4990 fluorescence intensity (a.u.)
14,AATACTTAATTAATCACGTACTAATGGATCGCTCCGTTTTCGGAGTCACCTAGTGCAG,28800 fluorescence intensity (a.u.)
15,CGAAAATATAAATGTTGACTGAATGAGCTGTTGAACCAAACGGAGTCACCTAGTGCAG,4440 fluorescence intensity (a.u.)
16,ATGAGCTATTAGATTGGCTATAGATGAATTGGATCTAGTACGGAGTCACCTAGTGCAG,16300 fluorescence intensity (a.u.)
17,AACCAAATTAATCTGAAATTCCAAATTAATACTCCCTCCGCGGAGTCACCTAGTGCAG,19500 fluorescence intensity (a.u.)
18,GATTAACTGGGAACAGATAAGTATCTCTTAGTAAGAGGGTCGGAGTCACCTAGTGCAG,16600 fluorescence intensity (a.u.)
19,GTACTTATGATTATGCTAATCACAAGTGGGCCCTTAATTACGGAGTCACCTAGTGCAG,21400 fluorescence intensity (a.u.)
20,GATTGATTAATATCTCATGTCATATCATTTTGTCAATTTTCGGAGTCACCTAGTGCAG,20800 fluorescence intensity (a.u.)
21,TATATATATATATATATATATATATATATCCGTTCAAAATCGGAGTCACCTAGTGCAG,8370 fluorescence intensity (a.u.)

row,Sequence,binding signal
1,TTGATTGCTTTACTCATGGTCAGTATGATGCTCATACCTCCGGAGTCACCTAGTGCAG,31000 fluorescence intensity (a.u.)
2,TAAGTAGATCGAAAATGTTTCAATCATTTAAATCAGGCGTCGGAGTCACCTAGTGCAG,4180 fluorescence intensity (a.u.)
3,TTGTTAAAATTGATTTAGGCATCTATCGTCACAGTGAACACGGAGTCACCTAGTGCAG,18000 fluorescence intensity (a.u.)
4,GCTGATTTGTTTTACACTCCATTAGATTTGTTAAGCTATTCGGAGTCACCTAGTGCAG,29200 fluorescence intensity (a.u.)
5,ACGTACCAAATTATGTTGCGTCTAATATACCAAACTGGAGCGGAGTCACCTAGTGCAG,3710 fluorescence intensity (a.u.)
6,TCGTAACATACATTGACAATCAAGAGGAGCCATGGCATTGCGGAGTCACCTAGTGCAG,14000 fluorescence intensity (a.u.)
7,TTACATTCAATGGAATTAATTTAGTGCAGTAGATATTGATCGGAGTCACCTAGTGCAG,4770 fluorescence intensity (a.u.)
8,TATATATATATATATATTGCGAGGATTGTTATAATAAAAGCGGAGTCACCTAGTGCAG,9860 fluorescence intensity (a.u.)
9,CTGATATTACCAAATTTGGTCGTTAACAGTTGTCAATGTCCGGAGTCACCTAGTGCAG,5750 fluorescence intensity (a.u.)
10,AGCTTATGTGATTTATAAACCGGTGACTTTAAAACTGTTTCGGAGTCACCTAGTGCAG,6010 fluorescence intensity (a.u.)
11,TTTAATTTATGGAGAATATGGTTTGTGCTCATGGTTGGGACGGAGTCACCTAGTGCAG,19400 fluorescence intensity (a.u.)
12,AGTCAATTTAAACATGGCCGGCTGTAAAATCAATTTAGTCCGGAGTCACCTAGTGCAG,11400 fluorescence intensity (a.u.)
13,AGATTAAACTGGAATGGAGGGTGTAACAAGTGATCTCAGCCGGAGTCACCTAGTGCAG,5620 fluorescence intensity (a.u.)
14,TAATTCCATTAACTTTCTTTCAATCTTAAAACTCCTGACACGGAGTCACCTAGTGCAG,3290 fluorescence intensity (a.u.)
15,TTAAATAGACACATTCTAATACTTCAAAATAATAACAAGCCGGAGTCACCTAGTGCAG,15300 fluorescence intensity (a.u.)
16,AAACTAATTGCACAGTTAAGAAGAAAATCACGAGACGAATCGGAGTCACCTAGTGCAG,16500 fluorescence intensity (a.u.)
17,GGGGTAAATTCAGACTTAATTTTAAGTAGATTTTAGAATACGGAGTCACCTAGTGCAG,13000 fluorescence intensity (a.u.)
18,TAATTATTGACTAATATATTAATTAATATAATGTAATTTACGGAGTCACCTAGTGCAG,22700 fluorescence intensity (a.u.)
19,GTTAAACTAATTTGAATTTGTTAGTACAGTTTGCATTTCACGGAGTCACCTAGTGCAG,25500 fluorescence intensity (a.u.)
20,CCTTATTAATGAGGTGTGGTTTATGGATATGATAGAGAGACGGAGTCACCTAGTGCAG,3170 fluorescence intensity (a.u.)
21,ATTAATTGTTGTACATTATAAATTTTCCCTTGCATGTTTCCGGAGTCACCTAGTGCAG,24800 fluorescence intensity (a.u.)
